Assays:
[1] = test system: A549 cells; test: Cytotoxicity assay of ADC (Cell Titer Glo) on A549; type: cell-based, human
[2] = test system: HepG2; test: Non-specific binding (FACS) on HepG2; set-up: species or system human; conditions: HepG2, 10 μg/mL
Description: (§1) Human cell lines were seeded in 96-well plates (BD) at a density of 1×10^5 cells/well. 10 μg/mL antibody samples were added to cells and incubated for 1 h at 4° C. After washing, the cells were resuspended and incubated with PE-conjugated goat anti-human IgG Fc antibody (Jackson) for 30 min. After washing and resuspending, mean fluorescence intensity (MFI) was measured by flow cytometry (BD Canto II) and analyzed by FlowJo.

[3] = test system: Calu-6; test: Non-specific binding (FACS) on Calu-6; set-up: species or system human; conditions: Calu-6, 10 μg/mL
Description: as §1

[4] = test system: HCT-116 cells; test: Serum stability in human serum, FACS binding to HCT-116 cells; type: in vitro ADME; conditions: human serum 37° C.
Description: The antibody stability in human serum was tested by FACS. Briefly, human serum was freshly isolated by centrifuging the fresh blood twice at 4000 rpm for 10 minutes. […] As a control, antibodies serum mix was frozen immediately without 37° C. incubation. For the FACS analysis, the samples from different time points were free-thawed simultaneously at 4° C. The thawed antibodies were serially diluted and added to 1×10^5/well HCT-116 (ATCC, #CCL-247) cells and incubated for 1 hour at 4° C. The cells were washed twice with 1% BSA/1×PBS (Ca+/Mg+). Alexa647 conjugated Goat anti-human IgG Fc (Jackson, #109-605-098) 1:500 diluted in 1% BSA/1×PBS (Ca+/Mg+) were added to the cells and incubated at 4° C. for 30 minutes. Cells were washed twice in the same buffer and the mean fluorescence (MFI) of stained cells was measured using a FACS Canto II cytometer (BD Biosciences) and analyzed by FlowJo. Wells containing no antibody or secondary antibody only were used to establish background fluorescence. Four-parameter non-linear regression analysis was used to obtain EC50 values for cell binding using GraphPad Prism6 software.

B1: W3195-1.53.1-p1-uIgG1L-MMAE (conjugate)
heavy: QVQLQESGPGLVKPSETLSLTCTVSGGSVISDNYYWTWVRQPPGKGLEFIGYIYYRGSTNYNPSLKNRVIISIDTSRNQFSLDLNSVTAADTAVYYCARDRRTGNSLPFDNWGQGTLVTVSSASTKGPSVFPLAPSSKSTSGGTAALGCLVKDYFPEPVTVSWNSGALTSGVHTFPAVLQSSGLYSLSSVVTVPSSSLGTQTYICNVNHKPSNTKVDKRV[human IgG1 Fc not written out]
light: SYELTQPPSVSVSPGQTAQITCSGDKLGDKFASWYQQKSGQSPVVVIYQDNKRPSGFPERFSGSNSGNTATLTISGTQAMDEADYYCQAWDSSIVVFGGGTKLTVLGQPKAAPSVTLFPPSSEELQANKATLVCLISDFYPGAVTVAWKADSSPVKAGVETTTPSKQSNNKYAASSYLSLTPEQWKSHRSYSCQVTHEGSTVEKTVAPTECS
B1 was tested, and the IC50 ([1]; A549 (P-cadherin low expressing), 5 days, read-out: IC50 (nM), ADC toxicity) was greater than 10 nM, the “Max Inh %” value ([1]; A549, 5 days) was −7.8% and the “MFI, non-specific binding” value [2] was 52.6. The “MFI, non-specific binding” value [3] was 38.5, the “stable in serum stability test” value [4] was “at least 14 days” and the “Max MFI, FACS binding with time” value ([4]; Day 0) was 14400. The “Max MFI, FACS binding with time” value ([4]; Day 1) was 15100, the “Max MFI, FACS binding with time” value ([4]; Day 4) was 15100 and the “Max MFI, FACS binding with time” value ([4]; Day 7) was 15700. The “Max MFI, FACS binding with time” value ([4]; Day 14) was 15800.

— patent publication US20240239885A1, “ANTIBODY CONJUGATE COMPRISING ANTI-P-CADHERIN ANTIBODY AND USES THEREOF” (WUXI BIOLOGICS IRELAND LIMITED, priority 2021, published 2024)
